Data published in article PMC4068158.
No constants are given. Whether binding was seen depends on the method and setting. Binding seen in cells or lysates may run through a third protein. Some binding calls cover weakened binding; strength is not graded here.

By UniProt entry, the sequences of proteins in these tests, tags left out. Where a name states a change or a piece, a line headed by the entry shows the natural chain unless it says otherwise.
UniProt P61266: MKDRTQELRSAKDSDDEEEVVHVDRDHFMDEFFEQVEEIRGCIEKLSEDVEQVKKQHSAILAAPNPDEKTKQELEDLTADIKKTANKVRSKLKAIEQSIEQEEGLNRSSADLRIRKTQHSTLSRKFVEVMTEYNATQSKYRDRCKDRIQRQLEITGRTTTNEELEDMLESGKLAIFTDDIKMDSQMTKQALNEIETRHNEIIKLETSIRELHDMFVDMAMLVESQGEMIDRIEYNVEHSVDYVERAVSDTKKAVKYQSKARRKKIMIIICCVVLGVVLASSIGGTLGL
UniProt O95292: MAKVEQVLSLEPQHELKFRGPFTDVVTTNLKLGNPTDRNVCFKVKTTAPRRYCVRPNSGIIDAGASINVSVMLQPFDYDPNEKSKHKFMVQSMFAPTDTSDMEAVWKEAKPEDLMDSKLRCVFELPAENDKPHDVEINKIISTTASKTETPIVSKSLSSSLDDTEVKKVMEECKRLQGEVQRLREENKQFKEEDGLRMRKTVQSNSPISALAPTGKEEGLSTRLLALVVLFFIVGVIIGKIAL

Experiments:
[1] = molecular target: Flag-STX1B wild type (human) (UniProt P61266); assay: co-IP; Flag-STX1A or Flag-STX1B, wild type or mutant, immunoprecipitated; VAPB by immunoblot; cells not stated (Figure S2C)
[2] = molecular target: Flag-STX1B F32A-F33A (human) (UniProt P61266); assay: as above

## endogenous VAPB (human cells) (from UniProt O95292 1-243)
[1]
  binding: binds
[2]
  binding: binds
